Experimental data from article PMC4336329 (PLoS ONE, 2015).
The campaign covered roughly 310,000 compounds. About 14,000 (4.5%) showed an effect of 50% or more. The effect is printed as a negative number. The list shows a part of the results.

molecular target: human ether-à-go-go-related gene (hERG) potassium channel (human, UniProt Q12809); assay: primary screen, population patch clamp on CHO cells stably expressing hERG
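Also: peak tail current of the secondary pulse compared with the same well before compound.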

Chain of human ether-à-go-go-related gene (hERG) potassium channel (Q12809 whole entry, looked up): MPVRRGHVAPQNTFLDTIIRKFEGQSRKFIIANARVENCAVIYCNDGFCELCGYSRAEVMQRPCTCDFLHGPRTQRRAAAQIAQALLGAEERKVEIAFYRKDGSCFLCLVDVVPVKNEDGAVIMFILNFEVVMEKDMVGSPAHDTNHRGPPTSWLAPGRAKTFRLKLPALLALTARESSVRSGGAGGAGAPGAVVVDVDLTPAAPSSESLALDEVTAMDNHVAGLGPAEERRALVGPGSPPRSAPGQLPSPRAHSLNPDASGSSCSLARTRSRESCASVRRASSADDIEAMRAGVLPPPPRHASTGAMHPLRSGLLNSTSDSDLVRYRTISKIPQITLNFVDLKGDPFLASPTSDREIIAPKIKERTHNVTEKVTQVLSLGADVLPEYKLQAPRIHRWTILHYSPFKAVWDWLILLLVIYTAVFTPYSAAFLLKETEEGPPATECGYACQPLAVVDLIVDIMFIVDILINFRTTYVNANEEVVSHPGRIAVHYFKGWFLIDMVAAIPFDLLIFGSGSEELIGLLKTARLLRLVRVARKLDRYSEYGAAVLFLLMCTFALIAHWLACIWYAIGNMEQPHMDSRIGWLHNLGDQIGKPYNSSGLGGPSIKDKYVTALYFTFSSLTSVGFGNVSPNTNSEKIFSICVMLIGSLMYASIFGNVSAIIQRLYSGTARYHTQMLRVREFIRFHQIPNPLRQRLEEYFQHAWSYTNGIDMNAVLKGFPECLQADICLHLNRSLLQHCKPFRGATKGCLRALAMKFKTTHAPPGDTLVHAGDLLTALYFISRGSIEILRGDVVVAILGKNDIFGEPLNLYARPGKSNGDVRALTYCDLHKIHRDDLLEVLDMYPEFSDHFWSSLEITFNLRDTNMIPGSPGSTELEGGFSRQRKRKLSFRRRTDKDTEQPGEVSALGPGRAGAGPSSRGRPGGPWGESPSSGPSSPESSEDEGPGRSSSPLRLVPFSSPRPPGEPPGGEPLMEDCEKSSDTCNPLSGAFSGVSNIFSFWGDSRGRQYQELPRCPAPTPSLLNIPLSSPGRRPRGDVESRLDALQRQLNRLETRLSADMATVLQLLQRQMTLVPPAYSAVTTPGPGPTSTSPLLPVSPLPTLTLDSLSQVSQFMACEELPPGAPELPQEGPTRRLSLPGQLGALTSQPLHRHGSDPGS

| Structure (SMILES) | hERG current change (%, negative = inhibition) at 10uM [%] |
| --- | --- |
| Cc1ccc(CCNC(=O)C2CCN(S(=O)(=O)c3ccc4c(c3)NC(=O)CO4)CC2)cc1 | -1.82 |
| COC(=O)C1=C(C)N(Cc2ccco2)C(=O)N[C@H]1c1ccc(Br)cc1 | 4.35 |
| Clc1ccc(Cl)c(-c2nn3c(COc4ccccc4)nnc3s2)c1 | 3.08 |
| CC1CCC2C(=O)N(c3ccc(NC4CCN(Cc5ccccc5)CC4)c([N+](=O)[O-])c3)C(=O)C2C1 (stereo not shown) | -41.2 |
| CCOc1ccc(S(=O)(=O)N2CCCC(C(=O)N3CCN(c4ccccc4)CC3)C2)cc1 (stereo not shown) | -56.3 |
| CC(=O)c1cccc(NC(=O)N2CCC(c3nnc(SCC(N)=O)n3C)CC2)c1 | 11.4 |
| Cc1onc(-c2ccccc2)c1CNS(=O)(=O)c1ccc(F)cc1F | -4.91 |
| O=C(NCCOCCNC(=O)OCc1ccccc1)OCc1ccccc1 | -24.9 |
| CCCOc1ccc(C(=O)c2ccccc2C(=O)O)cc1OCCC | 14.4 |
| CCOC(=O)c1ccc(-n2c(C)nc3c(cnn3-c3ccc(Cl)cc3)c2=O)cc1 | -15.5 |
| COCCNC(=O)NC12CC3(C)CC(C)(CC(C)(C3)C1)C2 | -14.4 |
| Brc1ccc(-c2cn3c(n2)CCc2ccc4cccnc4c2-3)cc1 | 12.5 |
| O=C(NCCNCc1cccs1)c1ccccc1F | 10.4 |
| OCCC1CN(Cc2ccc(-c3ccco3)cc2)CCN1Cc1ccsc1 (stereo not shown) | -53.8 |
| COc1ccc(C(=O)O)cc1S(=O)(=O)N(CCc1ccccc1)Cc1ccccc1 | 21.2 |
| CCOC(=O)C1=C(COC(=O)c2cccc(Br)c2)NC(=O)NC1C (stereo not shown) | -1.37 |
| COc1ccc(NC(=O)COc2ccc(S(=O)(=O)N3CCOCC3)cc2C)cc1OC | 17.6 |
| O=C(Nc1ccccc1N1CCN(C(=O)c2ccccc2)CC1)c1ccc2c(c1)OCO2 | -60.7 |
| CCN(CC(=O)Nc1ccc(NC(C)=O)cc1)C(=O)/C=C/c1ccc(C)o1 | -5.71 |
| CN1/C(=C/C=N/n2cnnc2)C(C)(C)c2ccccc21 | -1.92 |
| COc1ccc(CCNC(=O)Cc2cc(OC)c(OC)cc2Br)cc1OC | 9.45 |
| COC(=O)c1cccc(-n2c(CCC(=O)O)ccc2-c2cccs2)c1 | 7.21 |

| Structure (SMILES) | hERG current change (%, negative = inhibition) at 10uM [%] |
| --- | --- |
| O=C1NCCCC1C(=O)N/N=C/c1ccc(Cl)cc1 (stereo not shown) | -9.96 |
| Cc1ccc(C(C(=O)NCCc2ccccc2)N(C(=O)c2csnn2)C2CC2)o1 (stereo not shown) | -43.8 |
| COC(=O)c1c(NC(=O)CSc2ncn[nH]2)sc(C)c1C | 3.23 |
| CC(/C=C1\SC(=S)N(NC(=O)c2ccncc2)C1=O)=C\c1ccccc1 | 26.1 |
| Nc1[nH]ncc1S(=O)(=O)c1ccccc1 | 11.4 |
| COc1ccccc1CCC(=O)N(C)CC(=O)Nc1ccc(Cl)c(C(F)(F)F)c1 | 4.03 |
| O=[N+]([O-])c1ccc(Oc2ccc(F)cc2)c2ccncc12 | -37.4 |
| O=C(CCc1ccccc1)NNC(=O)c1ccccc1Cl | 17.5 |
| Nc1nc2c(nc(Br)n2[C@@H]2O[C@@H]3COP(=O)([O-])O[C@H]3[C@H]2O)c(=O)[nH]1.[Na+] | 2.3 |
| Cc1ccccc1NC(=O)CSc1ccc(-c2ccc(-n3cccn3)cc2)nn1 | 4.06 |
| Cc1ccc(CN(CC(=O)NC(C)(C)C)C(=O)CNC(=O)c2cccs2)cc1 | -6.51 |
| CCCCOC(=O)c1ccc(NC(=O)c2c(N)n(C)c(=O)[nH]c2=O)cc1 | 14.7 |
| Cc1cccc(C(=O)NC(=S)NC(C)c2ccccc2)c1 (stereo not shown) | 13.9 |
| O=C(COC(=O)c1ccc(O)cc1)NCC1COc2ccccc2O1 (stereo not shown) | -3.35 |
| O=C(CN1CCOCC1)Nc1nc2ccc([N+](=O)[O-])cc2s1 | -23 |
| O=C(CN1CCOCC1)Nc1ccccc1Sc1ccccc1 | -31.3 |
| O=C(Nc1cccc(O)c1)c1cc(-c2cccs2)on1 | 1.95 |
| O=C(Oc1oc(-c2ccco2)nc1C=Nc1ccccc1)c1ccco1 | 24.2 |
| CC(C)(C)c1ccc(S(=O)(=O)NCc2ccccn2)cc1 | -6 |
| CCCn1c(=O)c2sccc2n2c(CCCC(=O)NC3CCN(Cc4ccccc4)CC3)nnc12 | -10.9 |
| O=C(CCc1nc2ccccc2s1)OCc1ccccc1F | 5.65 |
| Cc1cc(N(C)/N=C/c2ccccc2)nc(-c2ccccc2O)n1 | 19.5 |

| Structure (SMILES) | hERG current change (%, negative = inhibition) at 10uM [%] |
| --- | --- |
| Cc1nc(SCCc2ccccc2)[nH]c(=O)c1C | 19.6 |
| CCC(=O)Oc1ccc(C(=O)Nc2ccc3c(c2)C(=O)N(C2CCCCC2)C3=O)cc1 | 24 |
| Cc1ccc(S(=O)(=O)NCc2ccncc2)cc1C(=O)NCC(C)C | -6.46 |
| CCCOc1ccc(C(O)(CCC)CCN2CCCCC2)cc1 (stereo not shown) | -56.1 |
| CCOC(=O)N1CCN(C(=O)c2cc3c(=O)n4cccc(C)c4nc3s2)CC1 | -9.84 |
| CCO[C@H]1OC(C(=O)N2CCN(Cc3ccccc3)CC2)=C[C@@H](C2CCCCC2)[C@@H]1CCCO | -5.5 |
| O=c1cc2c(n[nH]1)-c1ccccc1CC2 | 14.3 |
| Cn1c(=O)n(C)c2cc(/C=N/NC(=O)c3ccc(Cl)cc3)ccc21 | 6.84 |
| CC1CCCN(C(=O)Cn2nnc(-c3cccnc3)n2)C1 (stereo not shown) | -1.24 |
| CCCN(Cc1nnc(-c2cccs2)o1)C(=O)CN1C(=O)NC2(CCC(C)CC2)C1=O (stereo not shown) | -49.1 |
| CCOC(=O)N1CCN(c2cc(C)c(C(C)=O)cc2F)CC1 | 2.71 |
| CC(=O)c1cccc(S(=O)(=O)NCCC(=O)O)c1 | 54 |
| COc1ccc(NS(=O)(=O)c2ccc3oc(SCC(N)=O)nc3c2)cc1 | 12.8 |
| CCOC(=O)C1(C)Oc2cccnc2NC1=O (stereo not shown) | 22.6 |
| CCOCCCNC(=O)C(NC(=O)c1ccc(NC(C)=O)cc1)c1ccccc1 (stereo not shown) | 8.43 |
| COc1cccc(CCNC(=O)CC2C(=O)NCCN2Cc2ccc(C)o2)c1 (stereo not shown) | 15.7 |
| NC(=O)CNC(=O)[C@@H]1CC2(CC(c3ccccc3)=NO2)CN1C(=O)c1ccc(Br)cc1 (stereo partly shown) | 3.82 |
| CCC(=O)N1CCN=C1SCc1ccc(Cl)cc1 | -30.1 |
| COc1ccc([C@H]2CC(=O)C=C(c3cccc(CO)c3)C2)cc1 | -59.3 |
| Nc1c(Cl)cc(C(=O)c2c3ccc(C(F)(F)F)cc3[n+]([O-])n2CCC[NH3+])cc1Cl.[Cl-] | -57.6 |
| CCN1CC(CNC(=O)c2ccc3nc(Cc4cccc(Cl)c4)oc3c2)CC1=O (stereo not shown) | -19.9 |
| O=C(NCC(=O)N(c1ccccc1F)C(C(=O)NCC1CCCO1)c1ccccc1)c1ccco1 (stereo not shown) | -2.56 |

| Structure (SMILES) | hERG current change (%, negative = inhibition) at 10uM [%] |
| --- | --- |
| COc1ccc(-n2ncc3c2CC(C)(C)CC3NC(=O)CCn2cncn2)cc1 (stereo not shown) | -42.2 |
| CN(CCC#N)C(=O)COC(=O)C1c2ccccc2Oc2ccccc21 | -8.84 |
| Cc1cc(C(=O)CSc2nnc(-c3ccc4c(c3)OCO4)o2)c(C)n1-c1ccc(F)cc1 | -6.24 |
| CCOC(=O)C1CCN(C(=O)c2ccc(CNS(=O)(=O)c3ccc(OC)cc3)cc2)CC1 | -24.6 |
| CCNc1c(NC(=O)C2CCC(C)CC2)c(=O)oc2ccccc12 (stereo not shown) | 6.69 |
| CN(C)CCCNC(=O)/C(=C\c1ccc(-c2cccc([N+](=O)[O-])c2)o1)NC(=O)c1ccccc1 | -81.2 |
| O=C(Nc1ccccc1N1CCCC1)C1CCN(S(=O)(=O)c2cccc(C(F)(F)F)c2)CC1 | -16.8 |
| CC(=O)Nc1ccc(NC(=O)CSc2ccc(C(F)(F)F)cc2[N+](=O)[O-])cc1 | 10.8 |
| CCOc1ccc(NC(=O)CC2NCCNC2=O)cc1 (stereo not shown) | 2.47 |
| COc1ccccc1N(CC(=O)N1CCOCC1)S(C)(=O)=O | 10.7 |
| CN1CCN(C(=O)NCC23CC4CC(CC(C4)C2)C3)CC1 | 4.58 |
| CCOc1ccc(NC(=O)CS(=O)CC(=O)Nc2cccnc2)cc1 (stereo not shown) | 21.3 |
| Cc1cccc(/C(N)=N/OC(=O)c2ccc(Cl)cc2Cl)c1 | 8.46 |
| Cc1ccc(OCC(=O)NCCCNC(=O)c2ccco2)cc1 | 0.583 |
| O=C(N/N=C/c1ccccc1F)c1ccccc1OCc1ccccc1 | 9.98 |
| Cc1ccc(/C=C2\Sc3ccccc3C2=O)s1 | 3.38 |
| Cc1nn2c(C)c(C(=O)Nc3ccccc3)cnc2c1-c1ccccc1 | 0.0991 |
| C/C(=N\Nc1ccccn1)c1ccc(Br)s1 | -7.5 |
| C#CCOCCOCCOCCNc1nc(N2CCN(C(=O)C(Cc3cc4ccccc4[nH]3)n3cc(C(N)C(C)CC)nn3)CC2)nc(N2CCN(C(=O)C(Cc3cc4ccccc4[nH]3)n3cc(C(N)C(C)CC)nn3)CC2)n1.Cl (stereo not shown) | 5.26 |
